Where “and” joins values, the source holds several entries; their conditions need not be identical. Equal entries are not always repeated. The whole screen tested about 420,000 compounds, of which about 50,000 (12%) were called active. Inconclusive results, whose numbers are uncertain, are shown with a selection of clear calls. Calls follow the shape of the dose curve; as a rule, active = well fitted inhibition curve with a large enough effect; inconclusive = small, poorly fitted or top-dose-only effect; inactive = flat fitted curve, though single readings scatter. Where the call is inconclusive, the potency comes from a doubtful curve fit.
Test: qHTS for Inhibitors of human tyrosyl-DNA phosphodiesterase 1 (TDP1): qHTS in cells in presence of CPT; also: nearly all actives have a fitted effect of over 55% in size
Conditions: chicken DT40 Tdp1-/-;hTDP1 cells + 20 nM CPT, ATP luminescence, 48 h; series mostly up to 46.2 µM
Outline: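 Chicken DT40 Tdp1-/- cells stably complemented with human TDP1 were seeded at 400 cells/well in medium containing 20 nM camptothecin, exposed to pin-transferred compounds, and grown at 37 °C for at least 48 hr. Viability was read as ATP luminescence.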
Potency is read from the fitted curve at half-maximal effect; tags tell the direction and shape of the fitted curve.

Structure (SMILES) | Potency
CCOC(=O)CCNC(=O)N1CCCC(Cc2ccccc2)(C(=O)OCC)C1 (configuration not stated) | inconclusive: 29.1 µM [inhibitor, single point]
CCOc1ccccc1NC(=S)Nc1ccc2cn[nH]c2c1 | inconclusive: 18.4 µM [inhibitor, single point]
Cc1ccc(N2C(S)=C(C#N)C(=O)NC2c2ccco2)cc1 (configuration not stated) | active: 23.1 µM
COC(=O)Cc1cc(=O)n(-c2nc3ccccc3s2)[nH]1 | inconclusive: 25.9 µM [inhibitor, single point]
Cc1ccc(S(=O)(=O)N(C)C)cc1NC(=O)COc1ccc(-c2nnco2)cc1 | inactive
CCN1CCN(c2nc3sc4c(c3c(=O)n2-c2ccc(OC)cc2)CCCCC4)CC1 | inconclusive: 23.1 µM [inhibitor, single point]
CCOC(=O)C1=C(O)C(=O)N(Cc2ccccc2)C1 | inconclusive: 33.5 µM [inhibitor, single point]
CCOC(=O)N1CCN(C(=O)/C(=C/c2ccc(Cl)cc2)NC(=O)c2ccccc2)CC1 | inconclusive: 25.9 µM [inhibitor, single point]
CCN(CC)S(=O)(=O)c1ccc(-c2csc(=Nc3cccc(C(F)(F)F)c3)n2Cc2ccc3c(c2)OCO3)cc1 | inconclusive: 13 µM [inhibitor, partial curve]
COc1ccc(N=C2S/C(=C\c3cc(C)n(C)c3C)C(=O)N2CC(C)C)cc1 | inconclusive: 25.9 µM [inhibitor, partial curve, poor fit]
COc1ccc(C2c3c(n(C)c4ccccc34)C(=O)N2CC(=O)Nc2ccc(C)cc2Cl)cc1 (configuration not stated) | inconclusive: 23.1 µM [inhibitor, single point]
CCCCCCn1c(=O)n2n(c1=O)C[C@]1(OC(=O)Nc3c(C)noc3C)CN(S(=O)(=O)c3ccc(C)cc3)C[C@]1(O)C2 | inconclusive: 29.1 µM [inhibitor, single point]
CN(C)N1C(N)=C(C#N)C(c2ccc3c(c2)OCO3)C2=C1CCCC2=O (configuration not stated) | inactive
Cc1ccc(-c2nnc3n2N=C(c2ccc(Br)cc2)CS3)cc1 | active: 23.1 µM
Cc1ccc(S(=O)(=O)Cn2nnnc2C(c2ccccc2)N2CCN(c3ncccn3)CC2)cc1 (configuration not stated) | inconclusive: 16.4 µM [inhibitor, single point]
C/C(CC(=O)Nc1ccc(C)c(Cl)c1)=N\NC(=O)c1ccco1 | inactive
O=C(Nc1ncn[nH]1)c1ccc(Cl)c(S(=O)(=O)Nc2ccc(Cl)cc2)c1 | inconclusive: 29.1 µM [inhibitor, single point]
CN(C)c1ccc(CNC(=O)C2CCN(S(=O)(=O)c3ccc4c(c3)oc(=O)n4C)CC2)cc1 | inconclusive: 9.2 µM [inhibitor, partial curve]
O=C1c2ccccc2C(c2nnnn2C2CCCCC2)N1CCc1ccc(O)cc1 (configuration not stated) | inactive
Cc1ccc2nc(SCC(=O)Nc3cc(C)on3)nc(=O)n2c1 | inactive
CCc1c(C)nc2ncnn2c1N1CCC(C(=O)NCc2cccc(OC)c2)CC1 | inconclusive: 23.1 µM [inhibitor, single point]
COc1ccc(C(CNC(=O)c2cccc(S(=O)(=O)Nc3ccc(C)cc3)c2)N2CCOCC2)cc1 (configuration not stated) | inconclusive: 14.6 µM [inhibitor, partial curve]
Cc1ccc(S(=O)(=O)N2CCCc3cc(NS(=O)(=O)c4ccc(F)cc4)ccc32)cc1 | inconclusive: 16.4 µM [inhibitor, single point]

Structure (SMILES) | Potency
COc1ccc(N(CC(=O)NCc2ccccc2Cl)S(=O)(=O)c2c(C)n[nH]c2C)cc1 | inconclusive: 29.1 µM [inhibitor, single point]
Cc1ccc(C(=O)N/N=C(/CC(=O)c2cccs2)C(F)(F)F)cc1 | active: 7.31 µM
CCc1cccc(NC(=O)Cc2ccc(OC)c(OC)c2)c1 | inconclusive: 14.6 µM [inhibitor, partial curve]
Cc1ccc(C)c(S(=O)(=O)N2CCN(c3nc(CN4CCOCC4)nc4sc(C)c(C)c34)CC2)c1 | inconclusive: 20.6 µM [inhibitor, single point]
CCC(Oc1ccc(F)cc1)C(=O)Nc1nc2c(s1)CCCC2 (configuration not stated) | inconclusive: 23.1 µM [inhibitor, single point]
COc1ccc(-c2ccc(C(=O)Nc3cccc(Oc4ccccc4)c3)c3occc23)c(C)c1 | active: 23.1 µM
COc1ccc(C(=O)Nc2cc([N+](=O)[O-])ccc2N2CCN(C)CC2)cc1 | active: 11.2 µM
O=C(OCC(=O)N1CCN(C(=O)c2ccco2)CC1)c1cncc(Br)c1 | inactive
Cc1c(NC(=O)c2cccc(NC(=O)Cc3ccc(Cl)cc3)c2)c(=O)n(-c2ccccc2)n1C | inconclusive: 16.4 µM [inhibitor, partial curve]
COC(=O)c1ccccc1C(=O)c1c(C)cc(C)cc1C | inconclusive: 20.9 µM [inhibitor, single point]
COc1ccc(OCC(=O)N2CCN(c3cccc(Cl)c3)CC2)cc1 | inconclusive: 20.6 µM [inhibitor, single point]
O=C(Nc1ccccc1)[C@@H]1CC=C[C@@H]2CCN(Cc3ccccc3)C(=O)[C@@H]21 | inconclusive: 25.1 µM [inhibitor, single point] and inconclusive: 29.1 µM [inhibitor, single point]
COc1ccc(N2CC(C)Cn3c2nc2c3c(=O)n(Cc3ccccc3F)c(=O)n2C)c(OC)c1 (configuration not stated) | inconclusive: 16.4 µM [inhibitor, single point]
O=C(Nc1c(Br)cc2c(c1Br)Cc1ccccc1-2)C(Cl)Cl | inactive
COc1ccc2c(c1)C[C@]1(C)c3ccccc3C(=O)N(Cc3ccccc3)[C@H]21 | active: 16.4 µM
N#CC(C#N)=C1C(=O)N(CCN2CCOCC2)c2ccccc21 | active: 29.1 µM
CC[C@H](C)[C@@H](C(=O)N1CCNCC1)n1cc([C@@H](N)Cc2ccc(O)cc2)nn1 | inactive
C[C@@]12CCC[C@H]1C1CC[C@H]3C[C@H](O)CC[C@]3(C)C1CC2 (some centres not stated) | inactive
O=C(c1ccccc1)N1CCN(Cc2c[nH]c3ccccc23)CC1 | inconclusive: 25.9 µM [inhibitor, single point]
CC(c1n[nH]c(=S)n1Cc1ccccc1)N(C)C (configuration not stated) | inconclusive: 23.1 µM [inhibitor, single point]
CCn1c2ccccc2c2cc(NC(=O)c3cccc([N+](=O)[O-])c3C)ccc21 | inconclusive: 29.1 µM [inhibitor, single point]
CN(C)c1ccc(/C=C2\SC(N3CCCCC3)=NC2=O)cc1 | inconclusive: 23.1 µM [inhibitor, single point]
O=C(c1ccccc1)N1CC(COc2ccccc2)OC(c2ccco2)O1 (configuration not stated) | inconclusive: 29.1 µM [inhibitor, single point]

Structure (SMILES) | Potency
CC(=O)/C(=N/Nc1cccc(C)c1)N1CCOCC1 | active: 6.51 µM
CCOC(=O)N1CCN(C(=O)CSc2ccc3nnc(-c4cccnc4)n3n2)CC1 | inconclusive: 10.3 µM [inhibitor, partial curve]
COc1ccc(C(=O)N2c3nc(-c4ccco4)nn3C3(CCCCC3)[C@@H]3CCCC[C@@H]32)cc1OC | active: 16.4 µM
COc1ccc(NC(=O)C(CCSC)NC(N)=O)cc1Cl (configuration not stated) | inactive
CCN1C(=O)[C@H]2[C@@H](c3ccc(-c4ccc(Cl)c(Cl)c4)cc3)N[C@@](C)(C(=O)OC)[C@H]2C1=O | active: 8.2 µM
COc1ccc(CCNC(=O)CSC2=NS(=O)(=O)c3ccccc3N2)cc1OC | inconclusive: 11.6 µM [inhibitor, partial curve, poor fit]
CCCSC1=N/C(=C\C=C\c2ccco2)C(=O)S1 | active: 25.9 µM
Oc1ccccc1-c1cc(-c2ccccc2)no1 | inconclusive: 25.9 µM [inhibitor, single point]
CCC(C(=O)OCC(=O)N(CC)c1c(N)n(Cc2ccccc2)c(=O)[nH]c1=O)c1ccccc1 (configuration not stated) | inactive
Oc1ccc(C[C@H]2CN([C@@H](Cc3ccc(O)cc3)CN3CCC[C@@H]3CN3C(=S)NC[C@@H]3Cc3ccccc3)C(=S)N2CCc2ccccc2)cc1 | active: 9.2 µM
Cc1cccc(C(=O)N2CCCCC2CCN2CCCCC2)c1 (configuration not stated) | inactive
O=C(Nc1ccc(F)cc1)c1oc2ccccc2c1NC(=O)C1CCCCC1 | inconclusive: 23.1 µM [inhibitor, single point]
CC1(C)CC2CC(C)(CN2S(=O)(=O)c2cccc(N)c2)C1 (configuration not stated) | inconclusive: 16.4 µM [inhibitor, single point]
COc1cccc(-n2c(SCc3ccccn3)nc3c(c2=O)SCC3)c1 | inactive
CC(C)CC(NC(=O)CC12CC3CC(CC(C3)C1)C2)C(=O)NC1=NCCS1 (configuration not stated) | inconclusive: 25.9 µM [inhibitor, single point]
CCOC(=O)N1CCN(C(=O)COC(=O)c2ccc(Cl)nc2)CC1 | inactive
Cc1ccc(NC(=O)c2ccccn2)c(Br)c1 | inconclusive: 29.1 µM [inhibitor, single point]
Cc1cccc(/C=N/n2c(COc3ccccc3)n[nH]c2=S)c1 | inactive
CCOc1cc(C2C(C(=O)OCC(C)C)=C(C)N=C3SCCC(=O)N32)ccc1OC(C)=O (configuration not stated) | inactive
COC(=O)C1=C(C(=O)OC)[C@@H]2N(C)c3ccc(OC)cc3[C@@]23C[C@@H](C(=O)OC)N=C3N1 | inactive
CCOC(=O)c1ccc(NC(=O)c2ccc(OC(C)C)c(OC)c2)cc1 | inconclusive: 29.1 µM [inhibitor, single point]

Source: PubChem BioAssay AID686979 (National Center for Advancing Translational Sciences (NCATS), 2013)
